From article PMC4336329 (PLoS ONE, 2015)
In all, about 310,000 compounds went through this assay and about 2,200 (0.71%) showed an effect of 50% or more. Effects have a minus sign here. The list shows a part of the results.

Molecular target: human ether-à-go-go-related gene (hERG) potassium channel (human, UniProt Q12809)
Test: primary screen, population patch clamp on CHO cells stably expressing hERG

Chain of human ether-à-go-go-related gene (hERG) potassium channel (Q12809 whole entry, looked up): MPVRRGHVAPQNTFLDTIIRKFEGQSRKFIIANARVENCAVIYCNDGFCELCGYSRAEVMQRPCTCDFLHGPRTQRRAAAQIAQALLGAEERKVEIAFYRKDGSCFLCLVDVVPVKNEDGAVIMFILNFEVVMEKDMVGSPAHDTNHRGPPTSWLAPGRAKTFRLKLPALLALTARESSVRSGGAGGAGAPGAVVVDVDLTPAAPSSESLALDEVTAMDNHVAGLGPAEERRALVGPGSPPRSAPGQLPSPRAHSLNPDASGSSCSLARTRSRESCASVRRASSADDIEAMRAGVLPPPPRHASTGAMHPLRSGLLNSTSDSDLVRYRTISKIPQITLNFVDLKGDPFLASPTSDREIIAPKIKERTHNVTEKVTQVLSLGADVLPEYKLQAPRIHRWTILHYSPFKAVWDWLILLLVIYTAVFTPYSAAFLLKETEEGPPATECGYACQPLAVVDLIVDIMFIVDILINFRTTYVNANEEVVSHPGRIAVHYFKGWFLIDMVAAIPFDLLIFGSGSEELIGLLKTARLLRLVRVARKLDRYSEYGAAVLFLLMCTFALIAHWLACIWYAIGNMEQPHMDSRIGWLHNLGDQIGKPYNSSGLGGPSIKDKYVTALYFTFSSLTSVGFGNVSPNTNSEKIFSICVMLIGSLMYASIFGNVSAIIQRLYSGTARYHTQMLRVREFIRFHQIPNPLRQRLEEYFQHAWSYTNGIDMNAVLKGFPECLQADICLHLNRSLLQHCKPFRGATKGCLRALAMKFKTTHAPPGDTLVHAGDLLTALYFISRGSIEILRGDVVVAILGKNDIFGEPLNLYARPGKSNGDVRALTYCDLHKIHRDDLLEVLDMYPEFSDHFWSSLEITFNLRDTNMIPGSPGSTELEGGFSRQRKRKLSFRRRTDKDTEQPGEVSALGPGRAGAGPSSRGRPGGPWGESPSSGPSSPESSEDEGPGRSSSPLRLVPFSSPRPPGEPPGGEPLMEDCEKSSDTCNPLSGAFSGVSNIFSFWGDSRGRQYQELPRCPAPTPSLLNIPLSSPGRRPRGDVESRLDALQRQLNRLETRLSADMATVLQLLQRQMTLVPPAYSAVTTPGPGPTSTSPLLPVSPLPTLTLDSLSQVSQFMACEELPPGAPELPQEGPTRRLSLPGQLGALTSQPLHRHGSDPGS

Row | SMILES | hERG current change (%, negative = inhibition) at 1uM [%]
1 | CCSc1c([N+](=O)[O-])c(=O)n(-c2ccccc2)c2ccccc12 | 4.74
2 | O=c1cnc2cc([N+](=O)[O-])ccc2[nH]1 | 10.1
3 | Cc1ccc(-n2nc3c(c2NC(=O)c2ccco2)CS(=O)(=O)C3)cc1C | -2.67
4 | Clc1cccc(CN2CCN(Cc3ccco3)CC2)c1.O=C(O)C(=O)O | 8.19
5 | Cc1occc1C(=O)N1CCC2(CCCN(Cc3ccc(F)c(F)c3)C2)C1 (stereo not drawn) | 0.808
6 | Cc1ccc(NC(=O)C(c2ccc(Cl)cc2)N2CCOCC2)cc1 (stereo not drawn) | 16.1
7 | COc1cccc(C2CC(=O)Nc3cc(OC)c(OC)c(OC)c32)c1OC (stereo not drawn) | -4.5
8 | Nc1ncnc(Nc2ccccc2)n1 | 1.57
9 | CC(=O)Nc1cccc(NC(=O)CSc2nnnn2C(C)C)c1 | 9.3
10 | C#CCOC(=O)c1ccccc1C(=O)OCC#C | 6.37
11 | O=C(c1cc(-c2ccccc2Cl)nc2ccc(Br)cc12)N1CCN(c2ccccn2)CC1 | 6.28
12 | Cn1cc(S(=O)(=O)NC2CCCC2)c(=O)n(C)c1=O | 1.88
13 | COc1ccc(N(C(=O)c2ccco2)S(=O)(=O)c2cccc([N+](=O)[O-])c2)cc1 | 17.3
14 | CCOC(=O)c1cccc(NC(=O)CSc2nncn2-c2ccccn2)c1 | 13.1
15 | Cc1ccc(NC(=O)c2ccc3c(c2)C(=O)N(c2ccccc2C)C3=O)nc1 | 11.9
16 | CCCOc1ccc(C(=O)N(CC(C)C)c2c(N)n(Cc3ccccc3)c(=O)[nH]c2=O)cc1 | -8.27
17 | Cc1ccc(C)c(N(C(=O)CNC(=O)c2ccco2)C(C(=O)NC2CCCCC2)c2ccncc2)c1 (stereo not drawn) | 7.2
18 | COc1ccc(/C=C\C(=O)c2c(O)ccc3c(C)cc(=O)oc23)cc1 | 13.3
19 | CN(C(=O)c1ccc(S(=O)(=O)N(C)C)cc1)c1ccc2ccccc2c1 | 17.4

Row | SMILES | hERG current change (%, negative = inhibition) at 1uM [%]
20 | CC(C)COc1ccc(-c2nn(-c3ccccc3)cc2/C=C2/SC(=S)N(CC(=O)O)C2=O)cc1 | 10.1
21 | CCc1ccc(N2C(=O)C(Cl)=C(N3CCOCC3)C2=O)cc1 | 5.65
22 | N#CC1=C(N)Oc2n[nH]c(-c3cccs3)c2C1C1CCCCC1 (stereo not drawn) | 7.59
23 | CCN(C(=O)COC(=O)CNC(=O)c1ccc(C)s1)c1ccccc1 | 13.5
24 | COc1ccc(N2CCN(c3nc(Cl)nc(Nc4ccc(F)cc4)n3)CC2)cc1 | 1.64
25 | O=S(=O)(c1ccc(S(=O)(=O)N2CCN(C/C=C/c3ccccc3)CC2)cc1)N1CCCC1 | 8.92
26 | COc1cc(C2CC(=O)c3cnc(N)nc3C2)cc(OC)c1OC (stereo not drawn) | 10.8
27 | O=C(COC(=O)c1cn(-c2ccccc2)nc1-c1ccccc1)c1cccc([N+](=O)[O-])c1 | 17.4
28 | CC(C)Oc1ccc(C(=O)/C(=C\c2cccs2)c2nc3ccccc3o2)cc1 | 20.7
29 | O=C(CCNS(=O)(=O)c1ccccc1F)NC1CCCCCC1 | 5.57
30 | CC(C)C[C@H](NC(=O)C1(c2ccccc2)CCN(C(=O)[C@H]2CSCN2C(=O)OC(C)(C)C)CC1)C(=O)O | -0.115
31 | O=C(O)COc1ccccc1Cc1ccccc1 | -0.177
32 | CCOC(=O)Cc1csc(/C(=N/O)C(N)=O)n1 | 18.4
33 | CCN(CC)C(=O)CSc1nc2ccccc2c(=O)n1CC | 7.27
34 | Cc1ccc(NC(=O)CSc2nc3c(cc2C#N)C(=O)CCC3)cc1S(=O)(=O)N(C)C | -1.53
35 | CCOC(=O)c1c(C)[nH]c(C)c1C(=O)CSc1nc2ccccc2n1CC | 8.89
36 | O=C(Nc1ccccc1)C12CC3CC(C1)CC(n1cnc([N+](=O)[O-])n1)(C3)C2 | -38.3
37 | CC(=O)NC1(C(=O)O)CCCC1 | 11.2
38 | O=C(O)c1cc(Nc2cc(Cl)c3nonc3c2[N+](=O)[O-])ccc1O | 7.28

Row | SMILES | hERG current change (%, negative = inhibition) at 1uM [%]
39 | NC(=O)C(Cc1ccccc1)N1C(=O)c2ccccc2C1=O (stereo not drawn) | 9.77
40 | O=C(N=C1SC2CS(=O)(=O)CC2N1Cc1ccccc1)C1CCCO1 (stereo not drawn) | 10.6
41 | CCN(CC(=O)NCc1ccc(F)cc1)C(=O)c1cccnc1SC | -0.931
42 | COc1ccc(OC)c(CNC(=O)Cc2c(C(=O)O)[nH]c3ccc(Cl)cc23)c1 | 16.7
43 | CC(C)(C)c1ccc(C(=O)c2c[nH]c(C(=O)NCCc3ccccn3)c2)cc1 | 11.4
44 | COC(=O)CCCNC(=O)c1ccccn1 | 3.16
45 | CCOC(=O)c1c(CC(C)C)csc1/N=C/C1=C(O)CCCC1=O | 7.6
46 | Cc1ccccc1NC(=O)/C=C/c1ccc([N+](=O)[O-])s1 | 4.03
47 | O=C(CCS(=O)(=O)c1ccc(Br)cc1)N1CCN(c2ccc(F)cc2)CC1 | -12.6
48 | CN1CCC(OC(=O)c2ccccc2Cl)CC1.Cl | 5.67
49 | CN(CC(=O)Nc1ccccc1Cl)C(=O)c1cc(=O)[nH]c2ccccc12 | 7.33
50 | COC(C(=O)Nc1ccc(F)cc1)c1ccccc1 (stereo not drawn) | 0.755
51 | CCCCC(=O)Nc1ccccc1C(C)C | 7.23
52 | CCn1c(SCC(=O)NNC(=O)c2ccc(C)cc2)nnc1-c1ccco1 | 14.8
53 | CNC(=O)/C=C1\NC(C)(C)Cc2c1ccc1ccccc21 | 0.94
54 | CCCN(CC(=O)Nc1ccccc1C)C(=O)c1cc(=O)[nH]c2ccccc12 | 6.64
55 | COC1=CC(=O)O[C@@H](/C=C/c2ccccc2)C1 | 5.84
56 | CC(C)(C)c1ccc(NNC(=O)C2CCC2)cc1 | 15.5
57 | COCC(=O)N1CCCC(C(=O)c2ccc(C(F)(F)F)cc2)C1 (stereo not drawn) | 12.5
